The values below come from US20040009890A1, “Broad spectrum inhibitors” (priority 2002, published 2004).

In the assay the target is wild type and V82F/I84V mutant HIV-1 protease. Description: Inhibition (Ki) of wild type and V82F/I84V mutant HIV protease. The class given is biochemical. Particulars: wild type vs V82F and 184V active site mutant HIV protease.

On to `COc1ccc(S(=O)(=O)N(CC(C)C)C[C@@H](O)[C@H](Cc2ccccc2)NC(=O)O[C@H]2CO[C@H]3OCC[C@H]32)cc1` [Compound 1], for which the “Ki values for wild type and mutant enzymes (effect of active site mutations)” value was “Ki values for wild type and mutant enzymes are similar”. Next, `CC(C)CN(C[C@@H](O)[C@H](Cc1ccccc1)NC(=O)O[C@H]1CCOC1)S(=O)(=O)c1ccc(N)cc1` [Compound 2, Amprenavir]: “dramatically affected by the active site mutations”.
